# Values joined by “and” are separate entries in the source; they are usually repeats but may differ in a detail not shown here. Equal entries are not always repeated. The campaign covered roughly 110,000 compounds. About 230 (0.21%) showed an effect of 50% or more. The list shows a part of the results.
# Molecular target: DPAP1 (Plasmodium falciparum, UniProt Q8IIJ9)
# Assay: primary screen, percent inhibition; read by cleavage of a fluorogenic dipeptide substrate; higher = more effect of the substance
# Set-up: species or system P. falciparum D10 trophozoite lysates; single well
# 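Further: 30 min substrate incubation versus DMSO and 10 µM JCP410 controls.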
# DPAP1, sequence (Q8IIJ9 whole entry, looked up): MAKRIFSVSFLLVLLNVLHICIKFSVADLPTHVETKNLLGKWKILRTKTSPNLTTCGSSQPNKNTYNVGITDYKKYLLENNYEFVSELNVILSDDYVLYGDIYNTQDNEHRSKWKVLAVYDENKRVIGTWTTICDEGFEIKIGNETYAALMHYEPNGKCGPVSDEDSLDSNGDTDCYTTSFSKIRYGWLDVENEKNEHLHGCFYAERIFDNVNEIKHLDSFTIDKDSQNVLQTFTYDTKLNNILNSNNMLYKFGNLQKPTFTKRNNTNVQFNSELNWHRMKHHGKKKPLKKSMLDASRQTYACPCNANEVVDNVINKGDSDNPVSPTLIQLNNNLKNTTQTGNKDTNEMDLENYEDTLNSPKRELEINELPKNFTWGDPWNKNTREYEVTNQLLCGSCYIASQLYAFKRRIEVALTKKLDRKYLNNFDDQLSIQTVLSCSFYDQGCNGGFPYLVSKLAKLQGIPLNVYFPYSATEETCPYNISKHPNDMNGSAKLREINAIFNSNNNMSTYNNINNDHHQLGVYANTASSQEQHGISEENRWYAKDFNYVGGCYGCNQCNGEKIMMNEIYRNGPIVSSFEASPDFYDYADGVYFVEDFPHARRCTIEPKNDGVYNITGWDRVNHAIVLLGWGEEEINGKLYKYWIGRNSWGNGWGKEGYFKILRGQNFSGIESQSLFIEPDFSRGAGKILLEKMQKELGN
row,Structure (SMILES),% Inhibition @ 10 uM
1,O=C(Nc1ccc2c(c1)OCCO2)c1cccc(OC(F)F)c1,0.727%
2,CC(C)c1ccc(NC(=O)c2cccnc2)cc1,-9.68%
3,Cc1ccccc1Cc1c(C)nc2c(C(=O)N3CCN(Cc4ccc5c(c4)OCO5)CC3)cnn2c1C,1.16%
4,Cc1ccc(-c2nnc3n2N=C(c2ccc(Br)cc2)CS3)cc1,10.7%
5,Cn1nc(-c2ccccc2F)c2cc(C(=O)N3CCN(C(=O)c4ccco4)CC3)sc21,0.317%
6,COc1cc(/C=C/c2ccc3cccc(O)c3n2)c(Br)cc1O,-0.85%
7,O=C(Nc1sc2c(c1C(=O)NCc1cccnc1)CCCC2)c1ccc(Br)cc1,0.206%
8,Cc1sc2ncnc(SCC(=O)Nc3ccccc3)c2c1C,0.605%
9,CN1CCN(c2ccc3nnc(CCC(=O)NCc4ccc5c(c4)OCO5)n3n2)CC1,-6.16%
10,Cc1cccc(C)c1NC(=O)CSc1nc2c(cc1C#N)CCC2,4.28%
11,O=C1/C(=C/c2ccco2)CCC/C1=C\c1ccco1,7.5%
12,O=S(=O)(Nc1cccc(NS(=O)(=O)c2ccc(F)cc2)c1)c1ccc(F)cc1,-4.63%
13,COc1ccc(NS(=O)(=O)c2ccc(NC(=O)c3ccc(C(C)(C)C)cc3)cc2)cc1,-2.8%
14,Cc1nn(C)c(C(=O)Nc2cccc(Cl)c2C)c1Cl,-3.26%
15,COc1ccc(C(=O)c2ccccc2C)cc1,1.13%
16,COc1ccc2c(c1)nc(SCc1ccccc1)n2C,3.1%
17,CCc1c(CN(C)Cc2ccccc2)csc1C,2.83%
18,Cc1ccccc1OCC(=O)Nc1ccccc1N1CCOCC1,-4.02%
19,Cn1nc(C(=O)NCc2ccc(F)cc2)c2c1-c1ccccc1S(=O)(=O)C2,-7.98%
20,Cc1ccc(-c2ccc(=O)n(CC(=O)NCCN3CCOCC3)n2)cc1,-1.21%
21,CCOC(=O)c1c(C)oc2c1c(C(c1ccc(OC)cc1)N1CCN(C)CC1)c(O)c1ccccc12 (stereo not drawn),0.343%
22,CCOc1ccc(C(=O)c2ccc(OCC)c(N)c2)cc1N,-0.76%
23,COc1ccc(C2C(C#N)=C(N)Oc3[nH]nc(-c4ccccc4)c32)cc1OC (stereo not drawn),4.19%
24,Cn1nc(C(=O)N2CCC(N3CCCCC3)CC2)c2c1-c1ccccc1SC2,0.00665%
25,COc1ccc(C2C(=O)N(C3CCCCCC3)CC(=O)N2Cc2ccc(F)cc2)cc1 (stereo not drawn),1.16%

row,Structure (SMILES),% Inhibition @ 10 uM
1,CCN1CC2=C(OC(N)=C(C#N)C2c2ccccc2C)/C(=C/c2ccccc2C)C1 (stereo not drawn),4.61%
2,CN(C(=O)c1cccc([N+](=O)[O-])c1)c1ccccc1,7.04%
3,COc1cc(OC)c(CNC2CCCC2)cc1Br,-0.582%
4,Brc1ccc(-c2cn3c4ccccc4n(CCN4CCCCC4)c3n2)cc1,0.345%
5,O=C(NCCc1ccccc1)C(=O)Nc1ccc(Cl)c(Cl)c1,-7.87%
6,Clc1cccc(NCn2cnc3ccccc32)c1,8.06%
7,CCCn1c2ccccc2c2cc(OC)ccc21,-5.03%
8,CCn1c(C)c(C)c2cc(C(=O)NCCN3CCOCC3)ccc21,-5.28%
9,CCC(C)(C)/N=c1/c(-c2ccc(C)c(C)c2)c(O)c1=O,-1.98%
10,CCCN(CCC)CCNC(=O)CNC(=S)N1CC2CC(C1)c1cccc(=O)n1C2 (stereo not drawn),2.79%
11,CCOc1cc(/C=C2\SC(=O)N(CC)C2=O)cc(Br)c1O,-7.1%
12,CCc1ccccc1OCCSc1nc(-c2ccc(OC)cc2)nc2cc(=O)[nH]n12,4.13%
13,COC(=O)c1ccc(CN2CCc3ccccc3C2)cc1,3.48%
14,COc1ccc(CNC(=O)CCS(=O)(=O)c2ccc3nc(C)sc3c2)cc1,-1.97%
15,COc1ccc(Cn2c(-c3nonc3NC(C)=O)nc3ccccc32)cc1,5.2%
16,CCC(=O)N1N=C2C3CCN(CC3)C2C1c1ccc(OC)cc1 (stereo not drawn),-4.24%
17,CCOC(=O)/C(C#N)=C/c1c(Oc2ccc(C)cc2)nc2ccccn2c1=O,-1.86%
18,N=C1/C(=C\c2ccc(Cl)cc2)C(=O)N=C2SC(N3CCCC3)=NN12,-7.18%
19,COc1ccc(C2/C(=C(\O)OC3CCCCC3)C(C)=Nc3nnnn32)cc1Br (stereo not drawn),-0.326%
20,Clc1ccc(OCc2nnc(-c3ccccc3)o2)cc1,5.29%
21,COc1ccc(C(=O)C2=C(O)C(=O)N(CCN3CCOCC3)C2c2cccs2)cc1OC (stereo not drawn),-0.62%
22,O=C1CC(N2CCN(Cc3ccc4c(c3)OCO4)CC2)C(=O)N1c1cccc2ccccc12 (stereo not drawn),-1.17%
23,Brc1cc2c(cc1Cn1c(-c3cncs3)nc3ccccc31)OCO2,1.51%
24,CCOc1cc(C2CC(=O)NC3=C2C(=O)CC(C)(C)C3)ccc1OC(C)C (stereo not drawn),-3.51%
25,CC(=O)C(C(C)=O)=C(N)N1CCN(c2ccc(F)cc2)CC1,-3.9%

row,Structure (SMILES),% Inhibition @ 10 uM
1,Nc1nncn1C(=O)c1ccc2c(c1)OCO2,-5.85%
2,Cc1cc(C)c2c(=O)c3c(oc2c1)C(=O)N(CCCOC(C)C)C3c1ccc(Cl)cc1 (stereo not drawn),4.83%
3,CCOC(=O)c1c(NC(=O)Cn2nnc3sc4c(c3c2=O)CCC(C)C4)sc2c1CCCC2 (stereo not drawn),0.561%
4,Cc1c(C)n(Cc2ccccc2)c2ccc(C(=O)N3CCSCC3)cc12,0.431%
5,CC(C)c1ccc(OCC(=O)Nc2nccs2)cc1,8.26%
6,CCOc1ccc(C2C3=C(O)CC(C)(C)CC3=NC3=C2C(=O)CC(C)(C)C3)cc1OCC (stereo not drawn),-2.56%
7,COc1ccc2c(c1)c1c(c(=O)n(CCc3ccccc3)c(=O)n1CC(=O)NCC1CCCO1)n2C (stereo not drawn),-0.401%
8,O=C(Nc1cccc2ccccc12)C(=O)NC1CCCCC1,-8.01%
9,CCN(CC)c1nc(C)nc2sc(C(=O)N3CCCCCC3)c(C)c12,-7.66%
10,CCc1nn(CC(=O)NCc2cccc(Cl)c2)c(=O)c2cccn12,-0.542%
11,COc1ccc(C(=O)c2oc3ccccc3c2NC(=O)c2ccco2)cc1,0.487%
12,CCOC(=O)c1c(C)n(-c2ccccc2)c2ccc(NS(=O)(=O)c3ccccc3)cc12,1.8%
13,COc1cccc(-c2cc(C(=O)O)c3c(-c4ccc(F)cc4)[nH]nc3n2)c1O,1.02%
14,Cc1nc2nncn2c(NCCc2ccccc2)c1C,-8.25%
15,Cc1cccc(C(=O)NCCCn2ccnc2)c1,-1.81%
16,CCN(CC)CCn1c(/C=C/c2ccc(Cl)cc2)nc2cc3ccccc3cc2c1=O,-0.736%
17,Cc1nc2c(c(C)c1CCC(=O)NC(C)c1ccccc1)c(=O)n(C)c(=O)n2C (stereo not drawn),3.75%
18,COc1ccccc1-c1nnc(SCC(=O)N2CC(C)CC(C)C2)o1 (stereo not drawn),0.166%
19,CC(C(=O)NCCc1cccc2ccccc12)N1C(=O)c2ccccc2C1=O (stereo not drawn),14.1%
20,Cc1ccccc1Cn1c(=O)c2c(nc3n2CCN3Cc2ccco2)n(C)c1=O,-1.69%
21,C=CCN1C(=O)N/C(=C/c2ccc(N3CCOCC3)cc2)C1=O,4.11%
22,CC1(C)CC(=O)C(/C=N/c2ncccc2C(=O)O)=C(O)C1,-0.99% and -1.81%
23,CCC1(CC)C(=O)N=C(NCc2ccc(OC)cc2)N(C)C1=O,6.48%
24,CC(NC(=O)Cn1c2ccccc2c2cnnc(O)c21)c1ccccc1 (stereo not drawn),1.38%
25,CCCCN(C)C(=O)c1ccc(CS(=O)(=O)Cc2cccc(C)c2)o1,-1.79%

row,Structure (SMILES),% Inhibition @ 10 uM
1,N#Cc1c(N)c(C(=O)c2ccccc2)n2c1CCCC2,2.01%
2,COc1cc(C2Nc3ccccc3C(=O)N2Cc2ccco2)cc(OC)c1OC (stereo not drawn),-8.6%
3,OC(C#CC(O)(c1ccccc1)c1ccccc1)c1ccccc1F (stereo not drawn),-1.86%
4,CCOC(=O)c1sc2nc3c(cc2c1N)CCCC3,0.847%
5,COC(=O)c1c(NC(=O)c2ccc(F)cc2)sc(Cc2ccccc2)c1C,2.03%
6,CC(CC(NC(=O)OCc1ccccc1)C(=O)NCC#N)c1cccc2ccccc12 (stereo not drawn),1.35%
7,CC1(C)CC2CC(C)(CN2Cc2cccnc2)C1 (stereo not drawn),0.273%
8,CCN(CC)c1ccc(/C=C2/C(=O)N(c3ccccc3)C(=S)N(c3ccccc3OC)C2=O)cc1,1.13%
9,CCOC(=O)/C(C#N)=C\c1ccccn1,4.57%
10,O=C(/N=c1\scc(-c2ccc(Br)cc2)n1CCO)c1ccccc1,5.73%
11,CCc1ccc(Oc2nc3ccccn3c(=O)c2/C=C(\C#N)C(=O)NCC2CCCO2)cc1 (stereo not drawn),-1.86%
12,CCC(=O)N1CCN(c2cc(N3CCCC3)c(F)cc2[N+](=O)[O-])CC1,4.26%
13,N#CC1=C(N)SC(N)=C(C#N)C1c1ccco1,51.4%
14,COc1cccc(S(=O)(=O)Nc2ccc(C(=O)N3CC(C)CC(C)C3)cc2)c1 (stereo not drawn),-6.65%
15,Cn1c2ccccc2c2cnn(CC(=O)NCc3ccccc3Cl)c(=O)c21,-5.49%
16,CCCN(Cc1ccc([N+](=O)[O-])s1)CC1CC1,-5.42%
17,CN1C(=O)C2(C(C#N)=C(N)N(c3cc(Cl)cc(Cl)c3)C3=C2C(=O)CC(C)(C)C3)c2ccccc21 (stereo not drawn),-1.06%
18,COc1ccc(-c2noc(N3CCN(C4CCCCC4)CC3)n2)cc1,5.09%
19,CC1CCCCN1S(=O)(=O)c1ccc(-n2cnnn2)cc1 (stereo not drawn),6.92%
20,Cc1ccc(NC(=O)CN2C(=O)S/C(=C\c3c(C)[nH]c4ccccc34)C2=O)cc1,-1.92%
21,CCc1cc(O)nc(N2CCCCC2)n1,4.07%
22,Cn1c(=O)c2c(nc(Cl)n2CC(=O)NCc2ccccc2)n(C)c1=O,1.01%
23,COCCNS(=O)(=O)c1ccc(-c2ccc(O)nn2)o1,6.34%
24,CCOC(=O)c1sc(NC(=O)COc2ccccc2C(C)(C)C)nc1C,-3.21%

# From PMC6919601, “Identification of Plasmodium dipeptidyl aminopeptidase allosteric inhibitors by high throughput screening” (PLoS ONE, 2019)
